This sample is rich in variants without activity.
B1: tRNA (parent)
chain: CUCUCGGUAGCCAAGUUGGUUUAAGGCGCAAGACUUUAAUUUAUCACUACGAAAUCUUGAGAUCGGGCGUUCGACUCGCCCCCGGGAGAUUUUUUCCUCGAGCAA

Variants of: B1
Assay: nonsense suppression (GFP-seq) (ratio to wild type); higher = more function; SUP4oc tRNA, yeast GFP reporter sort-seq
Method in brief: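 Raffinose/galactose medium with 80 mg/L adenine was used to grow yeast carrying genome-integrated tRNA variants (~3% random-mutation library), RFP, and a galactose-driven GFP ochre reporter. Cells went into GFP/RFP bins, which were Illumina-sequenced, and variants with ≥100 reads and ≥30 cells were scored. Nonsense suppression (GFPSEQ) is the per-bin median GFP/RFP weighted by estimated cell share and expressed relative to the unmutated parent tRNA.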

C1U A9G G26C G66A C83U and C1G G25C C75G cannot be ordered by nonsense suppression: at most 0.026 for the first, at most 0.026 for the second.

C1G C27A U55G and C1U A31C A87U cannot be ordered by nonsense suppression: at most 0.026 for the first, at most 0.026 for the second.

C1G G59A G65U and C1U C3U G67A A87C cannot be ordered by nonsense suppression: at most 0.026 for the first, at most 0.026 for the second.

C1G G61A G78U A87C and C1G G6C U8C U57G G67A G88C cannot be ordered by nonsense suppression: at most 0.026 for the first, at most 0.026 for the second.

C1U A87C and C1G U20G C34G cannot be ordered by nonsense suppression: at most 0.026 for the first, at most 0.026 for the second.

C1G G18C A74U and C1G G86U cannot be ordered by nonsense suppression: at most 0.026 for the first, at most 0.026 for the second.

C1U A14C C56U and C1U A14C C56A cannot be ordered by nonsense suppression: at most 0.026 for the first, at most 0.026 for the second.

C1U A13C U16C A62C and C1G C11A U16G G59A A60C cannot be ordered by nonsense suppression: at most 0.026 for the first, at most 0.026 for the second.

C1G C3G C34U and C1G G7C A30U cannot be ordered by nonsense suppression: at most 0.026 for the first, at most 0.026 for the second.

C1G U21A G73C and C1G U8C G59C cannot be ordered by nonsense suppression: at most 0.026 for the first, at most 0.026 for the second.

C1G C3U and C1G U58C A62U G78U G88U cannot be ordered by nonsense suppression: at most 0.026 for the first, at most 0.026 for the second.

C1G C5U U57A and C1U A24U A89U cannot be ordered by nonsense suppression: at most 0.026 for the first, at most 0.026 for the second.

C1G U35A G84C and C1G C12A A24U cannot be ordered by nonsense suppression: at most 0.026 for the first, at most 0.026 for the second.

C1U A23U and C1G C72A cannot be ordered by nonsense suppression: at most 0.026 for the first, at most 0.026 for the second.

C1G G65C C82U and C1G U17A U70G cannot be ordered by nonsense suppression: at most 0.026 for the first, at most 0.026 for the second.

C1U A14U U21G G26U A62G G69A and C1U C5A C83A cannot be ordered by nonsense suppression: at most 0.026 for the first, at most 0.026 for the second.

C1G C27G G73U and C1G G84U cannot be ordered by nonsense suppression: at most 0.026 for the first, at most 0.026 for the second.

C1G A60C and C1G C5G A14G A30G U58G cannot be ordered by nonsense suppression: at most 0.026 for the first, at most 0.026 for the second.

C1G U8A C29U A62G U76G and C1G G19C G73C cannot be ordered by nonsense suppression: at most 0.026 for the first, at most 0.026 for the second.

C1G U55G G61C and C1G G15A A33C U58A cannot be ordered by nonsense suppression: at most 0.026 for the first, at most 0.026 for the second.

Compared with C1G C68U A74U, C1U A9G is higher in nonsense suppression: at most 0.026 for the first, 0.0262 for the second.

C1G C12A G69U G78U and C1G G10C C29U C34G A89G cannot be ordered by nonsense suppression: at most 0.026 for the first, at most 0.026 for the second.

C1G A54U G66C G84C and C1G U21A A30U cannot be ordered by nonsense suppression: at most 0.026 for the first, at most 0.026 for the second.

C1G U71A C79G and C1G G65A cannot be ordered by nonsense suppression: at most 0.026 for the first, at most 0.026 for the second.

C1G G65C and C1G U4A A54G cannot be ordered by nonsense suppression: at most 0.026 for the first, at most 0.026 for the second.

C1G U16C U20A U21A A24U A87C and C1U A30C G65A C80G cannot be ordered by nonsense suppression: at most 0.026 for the first, at most 0.026 for the second.

C1G C3U G10A and C1U A60C cannot be ordered by nonsense suppression: at most 0.026 for the first, at most 0.026 for the second.

C1G G73A C83A and C1G U22G G66U cannot be ordered by nonsense suppression: at most 0.026 for the first, at most 0.026 for the second.

C1G G6C U63C and C1G U17A G69C C81G cannot be ordered by nonsense suppression: at most 0.026 for the first, at most 0.026 for the second.

C1G U22G C56G C82A G84A A89U and C1G G7U C12U A14G A23C C68U G84C cannot be ordered by nonsense suppression: at most 0.026 for the first, at most 0.026 for the second.

C1G U58G C81A G86U and C1U C3G cannot be ordered by nonsense suppression: at most 0.026 for the first, at most 0.026 for the second.

C1G G66C U71A G78U and C1G C5G A30G cannot be ordered by nonsense suppression: at most 0.026 for the first, at most 0.026 for the second.

C1U A54U A74G and C1G C56A G66C G84U cannot be ordered by nonsense suppression: at most 0.026 for the first, at most 0.026 for the second.

C1G G10U C64G U76G and C1U A31C cannot be ordered by nonsense suppression: at most 0.026 for the first, at most 0.026 for the second.

C1U A31U and C1G C12U A89G cannot be ordered by nonsense suppression: at most 0.026 for the first, at most 0.026 for the second.

C1G U4A C12U and C1G C64U U71A cannot be ordered by nonsense suppression: at most 0.026 for the first, at most 0.026 for the second.

C1G C64U U71C and C1U A13G G15U U76G G88C cannot be ordered by nonsense suppression: at most 0.026 for the first, at most 0.026 for the second.

C1G G15C G59A G78U and C1G G18U A23G cannot be ordered by nonsense suppression: at most 0.026 for the first, at most 0.026 for the second.

C1G G59U and C1G G7U A33U G67C cannot be ordered by nonsense suppression: at most 0.026 for the first, at most 0.026 for the second.

C1G C68G and C1G G28U G65U G69U cannot be ordered by nonsense suppression: at most 0.026 for the first, at most 0.026 for the second.

C1G C79G and C1G C72A C82G cannot be ordered by nonsense suppression: at most 0.026 for the first, at most 0.026 for the second.

Going from C1U C3U C12U to C1U A54U G88A, the nonsense suppression rises from at most 0.026 to 0.209.

C1G U8G and C1G G18U C29A cannot be ordered by nonsense suppression: at most 0.026 for the first, at most 0.026 for the second.

C1U A33G U55A A62U U63A and C1G G7U U8C cannot be ordered by nonsense suppression: at most 0.026 for the first, at most 0.026 for the second.

C1U A31C A62U A74C and C1G G84U A87U cannot be ordered by nonsense suppression: at most 0.026 for the first, at most 0.026 for the second.

C1G U8A C12A G25U A62U A74G and C1U A30U cannot be ordered by nonsense suppression: at most 0.026 for the first, at most 0.026 for the second.

C1U A30C and C1G G7C U22C G67C A87G cannot be ordered by nonsense suppression: at most 0.026 for the first, at most 0.026 for the second.

C1U A30G C56G G73C G88C and C1G C11A C72U cannot be ordered by nonsense suppression: at most 0.026 for the first, at most 0.026 for the second.

C1G G7U and C1U A30C U57C G61A G84C G88C cannot be ordered by nonsense suppression: at most 0.026 for the first, at most 0.026 for the second.

C1G C34A C64A C68G and C1G G32C cannot be ordered by nonsense suppression: at most 0.026 for the first, at most 0.026 for the second.

C1G U2C U55C G59A G66A U76A C82G and C1G G10C A30G G32U cannot be ordered by nonsense suppression: at most 0.026 for the first, at most 0.026 for the second.

C1G U21C A23C C56A G84C and C1G G10A G19C G65C A74C cannot be ordered by nonsense suppression: at most 0.026 for the first, at most 0.026 for the second.

C1G U22G A30U G59A and C1G C27U cannot be ordered by nonsense suppression: at most 0.026 for the first, at most 0.026 for the second.

C1U A13G U63C and C1U A13U A14C U58A G65A cannot be ordered by nonsense suppression: at most 0.026 for the first, at most 0.026 for the second.

C1U A23G U63A and C1G A74U cannot be ordered by nonsense suppression: at most 0.026 for the first, at most 0.026 for the second.

C1G G7A G28A and C1G U17C C34G C72A cannot be ordered by nonsense suppression: at most 0.026 for the first, at most 0.026 for the second.

C1G G32A A60C U70A and C1G C5U G7U G18U cannot be ordered by nonsense suppression: at most 0.026 for the first, at most 0.026 for the second.

C1U A13U C82A and C1G C11A A24G cannot be ordered by nonsense suppression: at most 0.026 for the first, at most 0.026 for the second.

C1G G6U G66U G73U and C1U A30G U57A cannot be ordered by nonsense suppression: at most 0.026 for the first, at most 0.026 for the second.

C1G A60C G66C and C1G U55A C56A U58C cannot be ordered by nonsense suppression: at most 0.026 for the first, at most 0.026 for the second.

C1G G6C G69A and C1G U63G C77U cannot be ordered by nonsense suppression: at most 0.026 for the first, at most 0.026 for the second.

C1G U4A A54G A89C and C1G U4G G78C cannot be ordered by nonsense suppression: at most 0.026 for the first, at most 0.026 for the second.

C1G G15U A62C and C1U A13C U76C cannot be ordered by nonsense suppression: at most 0.026 for the first, at most 0.026 for the second.

C1G C5G U76C and C1U A23U C79G A89C cannot be ordered by nonsense suppression: at most 0.026 for the first, at most 0.026 for the second.

C1G G61C U63G C80A and C1G U20A G25A cannot be ordered by nonsense suppression: at most 0.026 for the first, at most 0.026 for the second.

C1G U2C U70A C75U and C1G U55G G67U cannot be ordered by nonsense suppression: at most 0.026 for the first, at most 0.026 for the second.

C1G C27A G61A and C1G C34A G65A cannot be ordered by nonsense suppression: at most 0.026 for the first, at most 0.026 for the second.

C1G U57A U58G G84U and C1U A24G cannot be ordered by nonsense suppression: at most 0.026 for the first, at most 0.026 for the second.

C1G C81G A87G and C1G C82U A87C cannot be ordered by nonsense suppression: at most 0.026 for the first, at most 0.026 for the second.

C1G G7U U17A A87G and C1U A31C A89U cannot be ordered by nonsense suppression: at most 0.026 for the first, at most 0.026 for the second.

C1G C29A C79U and C1G U4G G7C U55C G85C cannot be ordered by nonsense suppression: at most 0.026 for the first, at most 0.026 for the second.

C1G U16C G25U C79A and C1G C5A C29A G84U cannot be ordered by nonsense suppression: at most 0.026 for the first, at most 0.026 for the second.

C1G G6U G66U and C1U C3U C11G A31G cannot be ordered by nonsense suppression: at most 0.026 for the first, at most 0.026 for the second.

C1U A33G G67U U76A and C1G G88A cannot be ordered by nonsense suppression: at most 0.026 for the first, at most 0.026 for the second.

C1G C11G U76A and C1G C11G U70C C75A cannot be ordered by nonsense suppression: at most 0.026 for the first, at most 0.026 for the second.

C1G G15A U58C and C1U A13C A30C C77U A89C cannot be ordered by nonsense suppression: at most 0.026 for the first, at most 0.026 for the second.

C1G C3U A62G and C1G U76C G88C cannot be ordered by nonsense suppression: at most 0.026 for the first, at most 0.026 for the second.

C1G G15C C34U and C1G U21A cannot be ordered by nonsense suppression: at most 0.026 for the first, at most 0.026 for the second.

C1G G10A C68A and C1G G66C cannot be ordered by nonsense suppression: at most 0.026 for the first, at most 0.026 for the second.

C1G C12U G25C U63A and C1U A54U U58C G61A U70C cannot be ordered by nonsense suppression: at most 0.026 for the first, at most 0.026 for the second.

C1U A33G U35A G61A G66C and C1G C56G A74U cannot be ordered by nonsense suppression: at most 0.026 for the first, at most 0.026 for the second.

C1G G18U G85U and C1G C5U G61A U76G cannot be ordered by nonsense suppression: at most 0.026 for the first, at most 0.026 for the second.

C1G G6U A74G and C1G G7A G15A A89G cannot be ordered by nonsense suppression: at most 0.026 for the first, at most 0.026 for the second.

C1G G15U G88C gave a nonsense suppression of at most 0.026.

From the RNAGym collection of RNA variant scans (doi:10.1101/gad.245936.114)
